Laboratory results reported in the supplement of paper PMC4604168 (melanoma cell lines).
The other results are listed elsewhere or left out. Many values rest on one well or one pass, so single values are uncertain.
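Further: cell number obtained by counting DAPI-stained nuclei in high-throughput microscope images with image analysis software, screen run in 1,536-well plates.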

These compounds were tested on COLO792 (assay: cell count relative to DMSO control; melanoma cells; higher = more viable cells). Conditions: library dose: low library concentration; 72 h.
Compound CC[C@]1(O)C[C@H]2CN(CCc3c([nH]c4ccccc34)[C@@](C(=O)OC)(c3cc4c(cc3OC)N(C=O)[C@H]3[C@@](O)(C(=O)OC)[C@H](OC(C)=O)[C@]5(CC)C=CCN6CC[C@]43[C@@H]65)C2)C1 [vincristine] + Cn1c(=O)n(-c2ccc(C(C)(C)C#N)cc2)c2c3cc(-c4cnc5ccccc5c4)ccc3ncc21 [NVP-BEZ235] (first compound 0.0001 µM, partner dose 0.004 µM) has a cell count of 85.1%.
CC[C@]1(O)C[C@H]2CN(CCc3c([nH]c4ccccc34)[C@@](C(=O)OC)(c3cc4c(cc3OC)N(C=O)[C@H]3[C@@](O)(C(=O)OC)[C@H](OC(C)=O)[C@]5(CC)C=CCN6CC[C@]43[C@@H]65)C2)C1 [vincristine] + CO[C@H]1C[C@@H]2CC[C@@H](C)[C@@](O)(O2)C(=O)C(=O)N2CCCC[C@H]2C(=O)O[C@H]([C@H](C)C[C@@H]2CC[C@@H](OCCO)[C@H](OC)C2)CC(=O)[C@H](C)/C=C(\C)[C@@H](O)[C@@H](OC)C(=O)[C@H](C)C[C@H](C)/C=C/C=C/C=C/1C [everolimus] (first compound 0.0001 µM, partner dose 0.02 µM) showed a cell count of 61.2%.
With N#CC[C@H](C1CCCC1)n1cc(-c2ncnc3[nH]ccc23)cn1 [ruxolitinib] + CC[C@]1(O)C[C@H]2CN(CCc3c([nH]c4ccccc34)[C@@](C(=O)OC)(c3cc4c(cc3OC)N(C=O)[C@H]3[C@@](O)(C(=O)OC)[C@H](OC(C)=O)[C@]5(CC)C=CCN6CC[C@]43[C@@H]65)C2)C1 [vincristine] (first compound 1 µM, partner dose 0.0001 µM) the cell count was 124%.
N#CC[C@H](C1CCCC1)n1cc(-c2ncnc3[nH]ccc23)cn1 [ruxolitinib] + O=C(Nc1ccccc1)c1cc([N+](=O)[O-])ccc1Cl [GW9662] (first compound 1 µM, partner dose 2 µM) showed a cell count of 108%.
N#CC[C@H](C1CCCC1)n1cc(-c2ncnc3[nH]ccc23)cn1 [ruxolitinib] + CC(=O)O[C@@]12CO[C@@H]1C[C@H](O)[C@@]1(C)C(=O)[C@H](O)C3=C(C)[C@@H](OC(=O)[C@H](O)[C@@H](NC(=O)OC(C)(C)C)c4ccccc4)C[C@@](O)([C@@H](OC(=O)c4ccccc4)[C@H]21)C3(C)C [Docetaxel] (first compound 1 µM, partner dose 0.0001 µM) showed a cell count of 53.3%.
N#CC[C@H](C1CCCC1)n1cc(-c2ncnc3[nH]ccc23)cn1 [ruxolitinib] + COc1ccc(Cl)c(Nc2nc3ccccc3nc2NS(=O)(=O)c2cccc(NC(=O)C(C)(C)N)c2)c1 [XL147] (first compound 1 µM, partner dose 0.8 µM) was tested, and the cell count was 113%.
N#CC[C@H](C1CCCC1)n1cc(-c2ncnc3[nH]ccc23)cn1 [ruxolitinib] + Cc1cn(-c2cc(NC(=O)c3ccc(C)c(Nc4nccc(-c5cccnc5)n4)c3)cc(C(F)(F)F)c2)cn1 [nilotinib] (first compound 1 µM, partner dose 0.2 µM) showed a cell count of 96%.
With CC[C@]1(O)C[C@H]2CN(CCc3c([nH]c4ccccc34)[C@@](C(=O)OC)(c3cc4c(cc3OC)N(C=O)[C@H]3[C@@](O)(C(=O)OC)[C@H](OC(C)=O)[C@]5(CC)C=CCN6CC[C@]43[C@@H]65)C2)C1 [vincristine] + C[C@@H](Oc1cc(-c2cnn(C3CCNCC3)c2)cnc1N)c1c(Cl)ccc(F)c1Cl [Crizotinib] (first compound 0.0001 µM, partner dose 0.2 µM) the cell count was 95.8%.
Compound N#CC[C@H](C1CCCC1)n1cc(-c2ncnc3[nH]ccc23)cn1 [ruxolitinib] + COc1ccc(C2=N[C@@H](c3ccc(Cl)cc3)[C@@H](c3ccc(Cl)cc3)N2C(=O)N2CCNC(=O)C2)c(OC(C)C)c1 [Nutlin-3] (first compound 1 µM, partner dose 0.1 µM) has a cell count of 112%.
N#CC[C@H](C1CCCC1)n1cc(-c2ncnc3[nH]ccc23)cn1 [ruxolitinib] + Cn1sc(=O)n(Cc2ccccc2)c1=O [TDZD-8] (first compound 1 µM, partner dose 0.4 µM) showed a cell count of 95.3%.
CC[C@]1(O)C[C@H]2CN(CCc3c([nH]c4ccccc34)[C@@](C(=O)OC)(c3cc4c(cc3OC)N(C=O)[C@H]3[C@@](O)(C(=O)OC)[C@H](OC(C)=O)[C@]5(CC)C=CCN6CC[C@]43[C@@H]65)C2)C1 [vincristine] + O=C(O)[C@@H]1[O][Sb](=[O])([O][Sb]2(=[O])[O][C@H]([C@H](O)CO)[C@H](O)[C@H](C(=O)O)[O]2)[O][C@H]([C@H](O)CO)[C@@H]1O [stibogluconate] (first compound 0.0001 µM, partner dose 2 µM) was tested, and the cell count was 123%.
